# Assay results as given in patent US20250064779A1, “COMPOSITIONS AND METHODS FOR THE TREATMENT OF DEPRESSION” (Janssen Pharmaceuticals, Inc., priority 2022, published 2025).
# Values joined by “and” are separate entries in the source; they are usually repeats but may differ in a detail not shown here. Equal entries are not always repeated.
# Legend:
# [1] = test system: subjects with MDD who have had an inadequate response to SSRI/SNRI treatment; assay: SHAPS total score (anhedonia), Example 1; type: in vivo, human; details: for SHAPS Total Score: Mean (SD) / SHAPS Total Score: Mean Change to Placebo (SD pooled): 10 mg adjunctive to SSRI/SNRI; for SHAPS Total Score: Change from Baseline LSMean (SE) / SHAPS Total Score: LSMean Difference (SE) Treatment-Placebo: MMRM; for SHAPS Total Score: Effect Size: vs placebo, negative favors aticaprant
# Source text: To assess a potential effect on anhedonia, an anhedonia scale may be used. For example, the Snaith-Hamilton Pleasure Scale (SHAPS) analysis is a validated scale for the measurement of anhedonia. The SHAPS is a subject completed scale in which subjects score whether or not they experience pleasure in performing a list of activities or experiences. The SHAPS is a self-reported 14-item instrument, developed for the assessment of hedonic capacity. Subjects score whether they experience pleasure in performing a list of activities or experiences. Subjects can rate the answers as 1-4 where 1 indicates “Definitely agree”, 2 indicates “Agree”, 3 indicates “Disagree” and 4 indicates “Definitely disagree”. The subject's item responses are summed to provide a total score ranging from 14 to 56. A higher total SHAPS score indicates higher levels of current anhedonia. Physician/clinical judgment can be used to assess anhedonia separately or in conjunction with an anhedonia scale.
# In some embodiments, the patient has anhedonia. In some embodiments, the patient has moderate anhedonia. In other embodiments, the patient has severe anhedonia. An assessment of moderate or severe anhedonia is typically determined physician/clinical judgment and/or by one or more tests that provide insight into whether a patient has anhedonia. For example, the severity of the anhedonia may be determined using the SHAPS method. In some embodiments, a patient with moderate or severe anhedonia is considered to have a high level of anhedonia. For example, a patient with a SHAPS score of 38 or greater is considered to have moderate to severe anhedonia that can be considered a high level of anhedonia. In some embodiments, a high level of anhedonia is reflected by a SHAPS score of at least about 40, about 42, about 44, about 46, about 48, about 50, about 52, about 54, about 56, about 58, or higher. A patient with mild or no anhedonia would be considered to have a low level of anhedonia that is assessed by physician/clinical judgment and/or one or more tests. For example, a patient with a SHAPS score of less than 38 is considered to have low anhedonia. In certain embodiments, a patient with mild anhedonia may have a SHAPS score of 20 to less than 38, for example, a SHAPS score of 20 to about 36, about 22 to about 36, about 24 to about 36, about 26 to about 36, about 26 to about 34, about 26 to about 32, about 26 to about 30, about 26 to about 28, about 28 to about 36, about 28 to about 36, about 30, to about 36, about 32 to about 36, about 34 to about 36, about 20 to about 34, about 22 to about 34, about 24 to about 34, about 26 to about 32, about 26 to about 30, about 26 to about 28, about 28 to about 36, about 28 to about 34, about 28 to about 32, about 28 to about 30, about 30 to about 36, about 30 to about 34, about 30 to about 32, about 32 to about 36, about 32 to about 34, or about 34 to about 36. Typically, a SHAPS score of less than 20 can be considered to correspond to normal hedonic functioning, and for purposes of this disclosure, would fall into the low category of anhedonia, e.g., a SHAPS score of less than 38.
# [2] = test system: subjects with MDD who have had an inadequate response to SSRI/SNRI treatment; assay: Biomarker signature (3MM, DYN, 4MM) analysis of MADRS treatment effect, aticaprant (Example 4); type: in vivo, human
# [3] = Treatment Week 6, eITT, N 59, number of subjects (%)
# [4] = Treatment Week 6, fITT, N 77, number of subjects (%)
# [5] = DYN >δ1 or (DYN >δ2 and 3MM), 38-63% of patients
smiles,measurement,setting,value
"Cc1cc(C)cc(C2CCCN2Cc2ccc(Oc3ccc(C(N)=O)cc3F)cc2)c1 (stereo not shown) [aticaprant, 3-fluoro-4-4-2-(3,5-dimethylphenyl)pyrrolidin-1-yl-methylphenoxybenzamide]",Frequency of subjects with High Level of Anhedonia (SHAPS Total Score >= 38),[1]; [3],8 (13.56%)
same,Frequency of subjects with Low Level of Anhedonia (20 <= SHAPS Total Score < 38),[1]; [3],48 (81.36%)
same,Frequency of subjects with No Anhedonia (SHAPS Total Score <20),[1]; [3],3 (5.08%)
same,Frequency of subjects with High Level of Anhedonia (SHAPS Total Score >= 38),[1]; [4],8 (10.39%)
same,Frequency of subjects with Low Level of Anhedonia (20 >= SHAPS Total Score < 38),[1]; [4],62 (80.52%)
same,Frequency of subjects with No Anhedonia (SHAPS Total Score <20),[1]; [4],7 (9.09%)
same,SHAPS Total Score: Mean (SD),"[1]; eITT, Treatment Week 1",34.5
same,SHAPS Total Score: Mean Change to Placebo (SD pooled),"[1]; eITT, Treatment Week 1",−0.6 (3.77)
same,SHAPS Total Score: Change from Baseline LSMean (SE),"[1]; eITT, Treatment Week 1",−1.7
same,SHAPS Total Score: LSMean Difference (SE) Treatment-Placebo,"[1]; eITT, Treatment Week 1",−0.8
same,SHAPS Total Score: Effect Size,"[1]; eITT, Treatment Week 1",−0.15
same,SHAPS Total Score: Mean (SD),"[1]; eITT, Treatment Week 3",33.0
same,SHAPS Total Score: Mean Change to Placebo (SD pooled),"[1]; eITT, Treatment Week 3",−1.2 (4.96)
same,SHAPS Total Score: Change from Baseline LSMean (SE),"[1]; eITT, Treatment Week 3",−3.2
same,SHAPS Total Score: LSMean Difference (SE) Treatment-Placebo,"[1]; eITT, Treatment Week 3",−1.4
same,SHAPS Total Score: Effect Size,"[1]; eITT, Treatment Week 3",−0.25
same,SHAPS Total Score: Mean (SD),"[1]; eITT, Treatment Week 4",32.0
same,SHAPS Total Score: Mean Change to Placebo (SD pooled),"[1]; eITT, Treatment Week 4",−1.2 (5.21)
same,SHAPS Total Score: Change from Baseline LSMean (SE),"[1]; eITT, Treatment Week 4",−4.3
same,SHAPS Total Score: LSMean Difference (SE) Treatment-Placebo,"[1]; eITT, Treatment Week 4",−1.4
same,SHAPS Total Score: Effect Size,"[1]; eITT, Treatment Week 4",−0.23
same,SHAPS Total Score: Mean (SD),"[1]; eITT, Treatment Week 5",32.4
same,SHAPS Total Score: Mean Change to Placebo (SD pooled),"[1]; eITT, Treatment Week 5",−0.4 (5.49)
same,SHAPS Total Score: Change from Baseline LSMean (SE),"[1]; eITT, Treatment Week 5",−4.0
same,SHAPS Total Score: LSMean Difference (SE) Treatment-Placebo,"[1]; eITT, Treatment Week 5",−0.5
same,SHAPS Total Score: Effect Size,"[1]; eITT, Treatment Week 5",−0.08
same,SHAPS Total Score: Mean (SD),"[1]; eITT, Treatment Week 6",31.9
same,SHAPS Total Score: Mean Change to Placebo (SD pooled),"[1]; eITT, Treatment Week 6",−0.4 (5.66)
same,SHAPS Total Score: Change from Baseline LSMean (SE),"[1]; eITT, Treatment Week 6",−4.4
same,SHAPS Total Score: LSMean Difference (SE) Treatment-Placebo,"[1]; eITT, Treatment Week 6",−0.7
same,SHAPS Total Score: Mean (SD),"[1]; fITT, Treatment Week 1",32.9
same,SHAPS Total Score: Mean Change to Placebo (SD pooled),"[1]; fITT, Treatment Week 1",−0.6 (3.82)
same,SHAPS Total Score: Change from Baseline LSMean (SE),"[1]; fITT, Treatment Week 1",−1.9
same,SHAPS Total Score: LSMean Difference (SE) Treatment-Placebo,"[1]; fITT, Treatment Week 1",−1.0
same,SHAPS Total Score: Effect Size,"[1]; fITT, Treatment Week 1",−0.15
same,SHAPS Total Score: Mean (SD),"[1]; fITT, Treatment Week 3",31.9
same,SHAPS Total Score: Mean Change to Placebo (SD pooled),"[1]; fITT, Treatment Week 3",−1.0 (5.09)
same,SHAPS Total Score: Change from Baseline LSMean (SE),"[1]; fITT, Treatment Week 3",−3.1
same,SHAPS Total Score: LSMean Difference (SE) Treatment-Placebo,"[1]; fITT, Treatment Week 3",−1.4
same,SHAPS Total Score: Effect Size,"[1]; fITT, Treatment Week 3",−0.20
same,SHAPS Total Score: Mean (SD),"[1]; fITT, Treatment Week 4",30.8
same,SHAPS Total Score: Mean Change to Placebo (SD pooled),"[1]; fITT, Treatment Week 4",−1.2 (5.08)
same,SHAPS Total Score: Change from Baseline LSMean (SE),"[1]; fITT, Treatment Week 4",−4.1
same,SHAPS Total Score: LSMean Difference (SE) Treatment-Placebo,"[1]; fITT, Treatment Week 4",−1.6
same,SHAPS Total Score: Effect Size,"[1]; fITT, Treatment Week 4",−0.23
same,SHAPS Total Score: Mean (SD),"[1]; fITT, Treatment Week 5",30.9
same,SHAPS Total Score: Mean Change to Placebo (SD pooled),"[1]; fITT, Treatment Week 5",−0.5 (5.24)
same,SHAPS Total Score: Change from Baseline LSMean (SE),"[1]; fITT, Treatment Week 5",−4.1
same,SHAPS Total Score: LSMean Difference (SE) Treatment-Placebo,"[1]; fITT, Treatment Week 5",−0.8
same,SHAPS Total Score: Effect Size,"[1]; fITT, Treatment Week 5",−0.09
same,SHAPS Total Score: Mean (SD),"[1]; fITT, Treatment Week 6",30.5
same,SHAPS Total Score: Mean Change to Placebo (SD pooled),"[1]; fITT, Treatment Week 6",−0.5 (5.45)
same,SHAPS Total Score: Change from Baseline LSMean (SE),"[1]; fITT, Treatment Week 6",−4.5
same,SHAPS Total Score: LSMean Difference (SE) Treatment-Placebo,"[1]; fITT, Treatment Week 6",−0.8
same,Treatment effect in 3MM biomarker signature negative group,"[2]; 3MM negative, end of double-blind",1.59 MADRS points
same,effect size of treatment effect in 3MM signature positive group,"[2]; 3MM positive, one sided p=0.07",0.75
same,Treatment effect in 3MM biomarker signature positive group (placebo − treatment mean MADRS change),"[2]; 3MM: CRP >3 mg/L and (TNFα>4 pg/mL or sIL6R>25 ng/mL), 21% of MDD, end of double-blind",6.3 MADRS points and 6.29 MADRS points
same,"Signature advantage (TE SigPos − TE SigNeg), 3MM","[2]; 3MM, end of double-blind",4.7 MADRS points
same,"MADRS points difference at end DB relative to placebo, 4MM signature positive patients","[2]; 4MM positive, 63% of MDD",4.6 MADRS points
same,improvement of 4MM signature positive compared to signature negative counterpart,"[2]; 4MM, 63% of MDD",6 points
same,"Signature advantage, 4MM signatures",[2]; [5],> 5 point
same,"Treatment effect, 4MM signatures",[2]; [5],≥ 4.5 MADRS points
same,response in patients both 3MM positive and high dynorphin,"[2]; DYN >δ pg/mL and 3MM, FIG. 28B δ=11.5",marked improvement
same,"Signature advantage, high DYN or 3MM signature","[2]; DYN >δ pg/mL or 3MM, in more than 60% of patients",3-8 point
